Measured values from PubChem BioAssay AID624296 (National Center for Advancing Translational Sciences (NCATS), 2012).
Screen size: about 350,000 compounds; about 9,900 (2.8%) were called active. Inconclusive means that the source gave no clear call. Such entries were picked first, then a sample of the others. Calls follow the shape of the dose curve; as a rule, active = well fitted activation curve with a large enough effect; inconclusive = small, poorly fitted or top-dose-only effect; inactive = no such curve, though single readings can be large or run the other way. Potencies of inconclusive entries are left out as doubtful fits.
Potency is read from the fitted curve at half-maximal effect; tags tell the direction and shape of the fitted curve.

Test: A quantitative high throughput screen for small molecules that induce DNA re-replication in MCF 10a normal breast cells. Also: nearly all actives have a fitted effect of over 50% in size. As to activity, positive = re-replication: % of control where 0% means no effect.
Details: MCF 10A DNA re-replication, Hoechst nuclear intensity, 48 h; activity, positive = re-replication: at 46.1 µM (top of the series)
For `O=C(CCNS(=O)(=O)c1ccccc1)N1CCCCCCC1`, the “activity, positive = re-replication” value was inactive: -9.37%.
In the case of `COc1ccc(-n2cnc3cc(NCc4cccs4)ccc32)cc1`, the Potency is reported as inconclusive [activator, single point].
With `CCN(CC)C(=S)NC(=O)c1ccc(Cl)cc1Cl` the “activity, positive = re-replication” value was inactive: -2.02%.
With `CCOc1ccc(CNC(=O)c2ccc(Sc3ccc(C)cc3)c(NC(C)=O)c2)cc1` the Potency was inconclusive [activator, partial curve, poor fit].
For `N/C(=N\OC(=O)CCc1ccccc1)c1ccc(Cl)cc1`, the Potency was inconclusive [activator, single point].
With `CSc1ccc(CN(C)CC(=O)NC(=O)NCCC2=CCCCC2)cc1` the “activity, positive = re-replication” value was inactive: -5.28%.
For `CCN(CC)S(=O)(=O)c1cc([N+](=O)[O-])ccc1NNC(=O)Nc1ccc(F)cc1`, the Potency was active: 23.1 µM.
In the case of `O=C(N/N=C/c1ccc([N+](=O)[O-])o1)c1sc2ccccc2c1Cl`, the Potency is reported as inconclusive [activator, single point].
With `CCN(CC(=O)Nc1c(F)cccc1F)C(=O)C1CC(=O)N(CCc2ccc(OC)c(OC)c2)C1` (stereo not drawn) the “activity, positive = re-replication” value was inactive: -0.511%.
For `O=C(NC1CC1)c1c(O)c2ccccc2[nH]c1=O`, the Potency was inconclusive [activator, single point].
In the case of `CC(C)(C)C#CCn1c(/C=[N+](\[O-])C2CCCCC2)nc2ccccc21`, the “activity, positive = re-replication” value is reported as inactive: 14.2%.
With `O=C(Nc1ccccc1F)C1CCCN(S(=O)(=O)c2ccccc2)C1` (stereo not drawn) the Potency was inconclusive [activator, single point].
In the case of `COc1cccc(/C=C/C(=O)c2c(O)cc(C)oc2=O)c1O`, the Potency is reported as inconclusive [activator, single point].
With `Cc1nc2ccccc2c(=O)n1/N=C/c1ccccn1` the Potency was inconclusive [activator, partial curve, poor fit].
For `O=S(=O)(Nc1ccc2cn[nH]c2c1)c1ccc(Cl)s1`, the Potency was inconclusive [activator, partial curve, poor fit].
For `CCN(NC(=O)C(O)(c1ccccc1)c1ccccc1)C(=O)c1ccccc1`, the Potency was inconclusive [activator, full curve, poor fit].
With `N#Cc1ccc(C23CC4(C2)[C@H](CN(Cc2cccnc2)[C@@H]4c2ccccc2)C3c2ccccc2)cc1` (stereo partly drawn) the Potency was inconclusive [activator, single point].
For `COc1ccc(CCn2c(C)cc3c(c2=O)C(c2ccc4c(c2)OCO4)C(C#N)=C(N)O3)cc1OC` (stereo not drawn), the “activity, positive = re-replication” value was inactive: 2.33%.
For `COc1cccc(Oc2ccc(C(F)(F)F)cc2NC(=O)C2=COCCO2)c1`, the Potency was inconclusive [activator, single point].
In the case of `CCOc1cc(CN2CCCC(N3CCN(c4ccc(F)cc4)CC3)C2)ccc1OC` (stereo not drawn), the Potency is reported as active: 4.11 µM.
In the case of `CC(C)n1cc(/C=C2/NC(=O)NC2=O)c2ccccc21`, the Potency is reported as inconclusive [activator, partial curve, poor fit].
For `COC(=O)C1=C(C(=O)OC)[C@@H]2N(C)c3ccc(OC)cc3[C@@]23C[C@@H](C(=O)OC)N(C(=O)COCc2ccccc2)C3=N1`, the Potency was inconclusive [activator, single point].
For `CC(=O)c1ccc(N2CCN(S(=O)(=O)c3cc4[nH]c(=O)c(=O)[nH]c4cc3C)CC2)cc1`, the “activity, positive = re-replication” value was inactive: -0.0333%.
In the case of `COc1ccc(NC(=O)c2cc(-c3cc(C)c(C)cc3O)n[nH]2)c(OC)c1`, the Potency is reported as inconclusive [activator, single point].
In the case of `CCN1C(=C(C#N)C#N)C=Cc2cc(C)ccc21`, the Potency is reported as inconclusive [activator, partial curve, poor fit].
With `COc1ccccc1-c1cc(-c2ccccc2)nc(SC(C(N)=O)c2ccccc2)c1C#N` (stereo not drawn) the Potency was inconclusive [activator, single point].
In the case of `CCN(CC)S(=O)(=O)c1ccc(Cl)c(C(=O)NC2CCCC2)c1`, the “activity, positive = re-replication” value is reported as inactive: 3.07%.
For `C=CCN=c1scc(C)n1/N=C/c1ccc(O)c(O)c1`, the Potency was inconclusive [activator, single point].
In the case of `CCNc1nc(Oc2ccc(Cl)cc2Cl)cc(C(F)(F)F)n1`, the Potency is reported as inconclusive [activator, single point].
For `O=C(CN1CCCCCC1)Nc1ccccc1Oc1ccccc1`, the Potency was inconclusive [activator, single point].
With `Cc1cc(Cl)ccc1OCC(=O)N[C@@H](Cc1ccccc1)c1nc2ccccc2[nH]1` the Potency was inconclusive [activator, single point].
In the case of `O=C(Cc1ccc(-n2cccc2)cc1)NCc1ccccc1Cl`, the Potency is reported as active: 4.11 µM.
In the case of `Cc1ccc(NC(=O)CN2C(=O)S/C(=C\c3cc(C)n(-c4cccc(C(=O)O)c4)c3C)C2=O)cc1`, the Potency is reported as inconclusive [activator, single point].
For `Fc1ccccc1OCC1CCCN(Cc2nc(CC3CC3)no2)C1` (stereo not drawn), the “activity, positive = re-replication” value was inactive: -7.4%.
For `COc1ccc(C(F)(F)F)cc1N/C=C/c1nnnn1-c1ccc(C)cc1`, the Potency was inconclusive [activator, single point].
In the case of `C/C(=N\NC(=O)CN1CCCCC1)c1cccc([N+](=O)[O-])c1`, the “activity, positive = re-replication” value is reported as inactive: -3.97%.
For `COc1cccc(NC(=O)c2nc(SC)ncc2Cl)c1`, the “activity, positive = re-replication” value was inactive: 7.26%.
In the case of `O=C1Nc2ccccc2Oc2cc([N+](=O)[O-])cc(Oc3ccccc3)c21`, the Potency is reported as inconclusive [activator, partial curve, poor fit].
In the case of `Cc1cc(C(=O)N/N=C/c2ccc([N+](=O)[O-])cc2)c2ccccc2n1`, the Potency is reported as inconclusive [activator, full curve].
With `CCCn1c(N)c(C(=O)CSc2nc3ccccc3c(=O)n2Cc2ccccc2)c(=O)[nH]c1=O` the Potency was inconclusive [activator, single point].
With `COc1ccc(CCn2nc(C)c([N+](=O)[O-])c2C)cc1` the “activity, positive = re-replication” value was inactive: 6.18%.
In the case of `Cc1ccc(NC(=O)COC(=O)c2nn(-c3ccc(Cl)cc3)cc2O)cc1`, the Potency is reported as inconclusive [activator, partial curve, poor fit].
With `COC(=O)c1cc(-c2cc(OC)ccc2OC)nc2c1c(=O)n(C)c(=O)n2Cc1ccccc1` the Potency was active: 6.51 µM.
In the case of `COc1ccccc1[C@@H]1C(c2cccc(C)c2)=NN(c2ccc(Br)cc2)[C@H]1C(=O)N1CCOC1=O`, the Potency is reported as inconclusive [activator, single point].
In the case of `COc1ccc(OC)c(-c2nnc3n2N=C(c2ccc(OC)c(OC4CCOC4)c2)CS3)c1` (stereo not drawn), the Potency is reported as inconclusive [activator, full curve, poor fit].
For `CCc1ccccc1NC(=O)CC1S/C(=N\c2nccs2)N(CC)C1=O` (stereo not drawn), the Potency was inconclusive [activator, single point].
For `CCCN(CC(=O)Nc1cccc(Br)c1)CC(=O)Nc1ccc(F)c(F)c1F`, the Potency was inconclusive [activator, single point].
For `CCOc1ccc(NC(=O)c2cc3cc4ccc(OC)cc4nc3o2)cc1`, the Potency was active: 11.6 µM.
With `O=c1cc(CN2CCN(c3ccccc3F)CC2)c2cc3c(cc2o1)CCCC3` the “activity, positive = re-replication” value was inactive: 13%.
In the case of `CN(C(=O)c1cccc(NC(=O)Cc2cccc(NC(=O)C3CCN(C(=O)C4CC4)CC3)c2)c1)C1CC1`, the Potency is reported as inconclusive [activator, single point].
With `Cc1cc(C)c2c(N)c(C(=O)Nc3ccc(F)cc3)sc2n1` the Potency was active: 20.6 µM.
In the case of `COc1ccc(C(=O)NN(C)c2nc(C(F)(F)F)nc3ccccc23)cc1`, the Potency is reported as active: 0.0326 µM.
With `COc1cccc(C(=O)CC(=O)C(=O)Nc2cccc([N+](=O)[O-])c2C)c1` the Potency was inconclusive [activator, single point].
In the case of `O=C1NC(=S)SC1=Cc1cc(Br)ccc1O`, the Potency is reported as inconclusive [activator, single point].
In the case of `CC(=O)c1cc(C(c2csc(C(C)=O)c2)c2csc(C(C)=O)c2)cs1`, the “activity, positive = re-replication” value is reported as inactive: 0.0482%.
With `O=C(Cn1nc(-c2ccccc2)c2ccccc2c1=O)Nc1ccccn1` the Potency was inconclusive [activator, single point].
With `CC(C)CN(C(=O)COC(=O)c1ccc([N+](=O)[O-])o1)C1CCS(=O)(=O)C1` (stereo not drawn) the Potency was inconclusive [activator, single point].
In the case of `Cc1ccc(NC(=O)c2ncn(CCCN3CCN(c4ncccn4)CC3)n2)cc1C`, the Potency is reported as inconclusive [activator, full curve, poor fit].
With `Cc1nccn1CC(O)COc1ccc(Cl)cc1Cl` (stereo not drawn) the Potency was inconclusive [activator, single point].
For `COc1ccccc1/C=C/C(=O)c1c2c(c(C)[nH]c1=O)CCCC2`, the Potency was inconclusive [activator, single point].
For `CN(C)c1ncnc2c1ncn2C1OC(CO)C(O)C1O` (stereo not drawn), the Potency was inconclusive [activator, full curve].
For `O=[N+]([O-])c1ccc(CSc2ncnc3c2ncn3[C@@H]2O[C@H](CO)[C@@H](O)[C@H]2O)cc1`, the Potency was inconclusive [activator, partial curve, poor fit].
With `N#Cc1c(SCc2ccccc2)sc(C(=O)c2ccccc2)c1N` the “activity, positive = re-replication” value was inactive: 3.68%.
For `O=C(CCNc1ccc(F)cc1)c1cc2ccccc2o1`, the Potency was inconclusive [activator, single point].
For `COc1ccc(C(=O)Nc2ccc(C(=O)c3ccccc3)cc2)cc1`, the “activity, positive = re-replication” value was inactive: 25.3%.
For `O=[N+]([O-])c1ccc(/C=N/Nc2nc(N3CCCCC3)nc(N3CCCCC3)n2)cc1`, the “activity, positive = re-replication” value was inactive: -1.16%.
For `O=C(O)c1cn(-c2ccccc2)nc1-c1ccc(F)cc1`, the Potency was active: 13 µM.
For `COc1ccccc1CNC(=O)c1ccccc1OC`, the Potency was active: 9.2 µM.
